Values marked as one replicate rest on one cluster of the flow cell; about a third of the high ones do not repeat.
Each sequence was assayed on ATP (assay: switch fluorescence ratio, 500 uM ATP over buffer (Cy3 cluster intensity, sum of 5 cycles each) (fold (ratio)); higher = stronger signal-on switching upon ATP binding; sequences stand for … in TCGTCGGCAGCGTCAGATGTGTATAAGAGACAGTTTTTTTTTTTTTTTTTTTTTTTTT…TC). Details: aptamer strand: ATP DNA aptamer (quencher-CACCTGGGGGAGTATTGCGGAGGAAGG + anchor), 100 nM annealed; ATP concentration: 500 uM; one replicate.
Procedure, shortened: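 Five buffer/ATP imaging cycles were run on Cy3-labelled switching-strand clusters on a modified Illumina MiSeq flow-cell, with NaOH stripping and re-annealing between cycles. In each cycle, clusters annealed to 100 nM quencher-labelled ATP aptamer were imaged in selection buffer, then after 15 min with 500 uM ATP at 22 °C. Per cluster, the fluorescence ratio is summed target-cycle over summed buffer-cycle Cy3 intensity, averaged per switch-domain sequence. Only clusters within 100-1000 RFU were kept.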
In the case of ATTGTTAG, the switch fluorescence ratio is reported as 1.01.
Sequence ATTGTTAGTG has a switch fluorescence ratio of 0.982.
ATTGTTAT was tested, and the switch fluorescence ratio was 1.
Work on ATTGTTGCCG yielded a switch fluorescence ratio of 0.969.
With ATTTAACGT the switch fluorescence ratio was 0.996.
For ATTTAAGCGC, the switch fluorescence ratio was 1.03.
ATTTAAGGTG showed a switch fluorescence ratio of 1.39.
ATTTAATCGT was tested, and the switch fluorescence ratio was 1.06.
In the case of ATTTAATGTG, the switch fluorescence ratio is reported as 0.992.
In the case of ATTTACAGGA, the switch fluorescence ratio is reported as 1.05.
With ATTTACGGGA the switch fluorescence ratio was 1.08.
With ATTTACGTTC the switch fluorescence ratio was 1.03.
ATTTAGCGCA was tested, and the switch fluorescence ratio was 0.971.
ATTTAGCGGC gave a switch fluorescence ratio of 0.928.
ATTTAGGGCG was tested, and the switch fluorescence ratio was 1.
For ATTTAGGTCC, the switch fluorescence ratio was 1.03.
For ATTTATCTAT, the switch fluorescence ratio was 0.968.
Sequence ATTTCAGGC has a switch fluorescence ratio of 1.01.
ATTTCCTACG showed a switch fluorescence ratio of 2.71.
In the case of ATTTCGAGGC, the switch fluorescence ratio is reported as 1.05.
With ATTTCGGACT the switch fluorescence ratio was 0.965.
ATTTCGGGAC gave a switch fluorescence ratio of 1.03.
For ATTTCGTGTT, the switch fluorescence ratio was 0.999.
For ATTTCTCAAG, the switch fluorescence ratio was 0.974.
ATTTCTCGTT was tested, and the switch fluorescence ratio was 0.978.
Sequence ATTTCTGGCT has a switch fluorescence ratio of 0.917.
For ATTTGACAAG, the switch fluorescence ratio was 1.05.
In the case of ATTTGACGCC, the switch fluorescence ratio is reported as 1.04.
For ATTTGCCGTC, the switch fluorescence ratio was 1.07.
For ATTTGCCTTT, the switch fluorescence ratio was 1.05.
With ATTTGCGACG the switch fluorescence ratio was 1.01.
With ATTTGCGGGA the switch fluorescence ratio was 1.
With ATTTGCTTAC the switch fluorescence ratio was 1.27.
Sequence ATTTGGCTGC has a switch fluorescence ratio of 1.01.
In the case of ATTTGGGCGG, the switch fluorescence ratio is reported as 0.952.
For ATTTGTTTCC, the switch fluorescence ratio was 1.04.
ATTTTAATTA showed a switch fluorescence ratio of 0.996.
ATTTTACTGA was tested, and the switch fluorescence ratio was 1.04.
ATTTTAGTAA showed a switch fluorescence ratio of 0.984.
For ATTTTCGCGC, the switch fluorescence ratio was 1.14.
ATTTTGAAGG gave a switch fluorescence ratio of 0.975.
With ATTTTTCAAT the switch fluorescence ratio was 0.998.
Work on ATTTTTCGCG yielded a switch fluorescence ratio of 0.978.
Work on ATTTTTGCCA yielded a switch fluorescence ratio of 1.01.
Work on CAAAACGGAT yielded a switch fluorescence ratio of 1.03.
CAAAACGTGG showed a switch fluorescence ratio of 0.981.
CAAAACGTTA was tested, and the switch fluorescence ratio was 1.03.
Work on CAAAAGACCC yielded a switch fluorescence ratio of 1.15.
CAAAAGCCAA showed a switch fluorescence ratio of 1.08.
CAAAATCGTA showed a switch fluorescence ratio of 0.999.
For CAAAATGCGA, the switch fluorescence ratio was 2.36.
CAAACCCCAA gave a switch fluorescence ratio of 1.
With CAAACCCGGC the switch fluorescence ratio was 1.06.
CAAACCTAGG showed a switch fluorescence ratio of 1.03.
With CAAACCTCTT the switch fluorescence ratio was 1.04.
CAAACCTGCA gave a switch fluorescence ratio of 2.08.
CAAACGCGAA gave a switch fluorescence ratio of 4.27.
For CAAACGTCGC, the switch fluorescence ratio was 1.05.
With CAAAGAGGGC the switch fluorescence ratio was 1.14.
Work on CAAAGATATG yielded a switch fluorescence ratio of 1.05.
CAAAGATGGT showed a switch fluorescence ratio of 0.993.
With CAAATAAACG the switch fluorescence ratio was 1.02.
For CAAATAGTAG, the switch fluorescence ratio was 0.962.
With CAAATATAAG the switch fluorescence ratio was 0.996.
With CAAATATATA the switch fluorescence ratio was 1.01.
Work on CAAATGAATT yielded a switch fluorescence ratio of 1.03.
CAAATGGACA was tested, and the switch fluorescence ratio was 0.983.
For CAAATGGCCG, the switch fluorescence ratio was 1.15.
In the case of CAAATGGGGT, the switch fluorescence ratio is reported as 1.03.
Sequence CAAATGTGT has a switch fluorescence ratio of 0.965.
For CAAATTCGTG, the switch fluorescence ratio was 0.969.
With CAACAGAATC the switch fluorescence ratio was 0.988.
CAACAGGCGC showed a switch fluorescence ratio of 0.992.
For CAACCACGTC, the switch fluorescence ratio was 1.15.
CAACCCAGCC showed a switch fluorescence ratio of 1.12.
CAACCGGTGT gave a switch fluorescence ratio of 1.16.
CAACCGTATG was tested, and the switch fluorescence ratio was 0.987.
CAACCGTCGA gave a switch fluorescence ratio of 1.32.
CAACGCGGAT showed a switch fluorescence ratio of 1.25.
With CAACTAAGGA the switch fluorescence ratio was 1.02.
In the case of CAACTAGAGA, the switch fluorescence ratio is reported as 1.01.
In the case of CAACTCCGG, the switch fluorescence ratio is reported as 1.16.
Work on CAACTTACAG yielded a switch fluorescence ratio of 1.12.
Work on CAACTTATCC yielded a switch fluorescence ratio of 1.08.
Work on CAACTTCGTA yielded a switch fluorescence ratio of 0.989.
Sequence CAAGACGTGT has a switch fluorescence ratio of 0.979.
CAAGAGGAGG showed a switch fluorescence ratio of 0.972.
Sequence CAAGATAGGT has a switch fluorescence ratio of 1.
With CAAGCAGAGT the switch fluorescence ratio was 1.04.
In the case of CAAGCAGGGG, the switch fluorescence ratio is reported as 1.31.
Sequence CAAGCCAGGT has a switch fluorescence ratio of 1.27.
For CAAGCGGCTG, the switch fluorescence ratio was 1.04.
Work on CAAGCTAGCA yielded a switch fluorescence ratio of 1.
Sequence CAAGCTATA has a switch fluorescence ratio of 1.18.
Sequence CAAGCTCTAT has a switch fluorescence ratio of 0.961.
CAAGCTGCTG gave a switch fluorescence ratio of 0.957.
For CAAGCTTTGA, the switch fluorescence ratio was 0.976.
In the case of CAAGGATTGC, the switch fluorescence ratio is reported as 1.01.
In the case of CAAGGGCCCC, the switch fluorescence ratio is reported as 0.967.
For CAAGGGCTGG, the switch fluorescence ratio was 1.
For CAAGGGCTTA, the switch fluorescence ratio was 0.993.
Work on CAAGGGGAAT yielded a switch fluorescence ratio of 0.969.
Work on CAAGGTCTGG yielded a switch fluorescence ratio of 0.998.
In the case of CAAGTAAGGA, the switch fluorescence ratio is reported as 1.06.
In the case of CAAGTACTGG, the switch fluorescence ratio is reported as 1.
CAAGTAGCTC was tested, and the switch fluorescence ratio was 1.
CAAGTAGTCT was tested, and the switch fluorescence ratio was 1.06.
With CAAGTATAAG the switch fluorescence ratio was 0.961.
Sequence CAAGTCCTAC has a switch fluorescence ratio of 1.03.
Sequence CAAGTCTCAC has a switch fluorescence ratio of 1.04.
CAAGTGCGA was tested, and the switch fluorescence ratio was 1.07.
With CAAGTGGAAT the switch fluorescence ratio was 0.979.
Work on CAAGTGTTTT yielded a switch fluorescence ratio of 1.03.
CAAGTTACTT was tested, and the switch fluorescence ratio was 1.08.
CAAGTTTTTC was tested, and the switch fluorescence ratio was 0.977.
CAATAAGGCA showed a switch fluorescence ratio of 0.947.
In the case of CAATAGACGA, the switch fluorescence ratio is reported as 1.02.
CAATAGGTTG was tested, and the switch fluorescence ratio was 0.994.
With CAATATATAA the switch fluorescence ratio was 0.971.
CAATATCTG was tested, and the switch fluorescence ratio was 1.01.
With CAATATTCGA the switch fluorescence ratio was 0.976.
CAATCAACGT showed a switch fluorescence ratio of 0.961.
In the case of CAATCAAGTG, the switch fluorescence ratio is reported as 1.
CAATCACTCA showed a switch fluorescence ratio of 1.06.
CAATCGTCAC was tested, and the switch fluorescence ratio was 1.08.
Work on CAATCGTCAT yielded a switch fluorescence ratio of 1.
For CAATCTGGGT, the switch fluorescence ratio was 1.
Work on CAATGACTCG yielded a switch fluorescence ratio of 1.04.
CAATGACTG showed a switch fluorescence ratio of 0.847.
CAATGAGCGG showed a switch fluorescence ratio of 0.953.
With CAATGCACCG the switch fluorescence ratio was 0.998.
CAATGCAGGT showed a switch fluorescence ratio of 0.98.
CAATGCCGCG showed a switch fluorescence ratio of 1.05.
For CAATGCGACC, the switch fluorescence ratio was 2.74.
CAATGGGTTT showed a switch fluorescence ratio of 0.996.
CAATGGTTAT showed a switch fluorescence ratio of 1.01.
With CAATGTAAGC the switch fluorescence ratio was 1.
Sequence CAATGTCTGA has a switch fluorescence ratio of 0.99.
For CAATGTGGAC, the switch fluorescence ratio was 1.07.
CAATGTGGTG gave a switch fluorescence ratio of 0.996.
In the case of CAATTACAAA, the switch fluorescence ratio is reported as 1.01.
In the case of CAATTACACG, the switch fluorescence ratio is reported as 1.03.
In the case of CAATTACATT, the switch fluorescence ratio is reported as 1.01.
Sequence CAATTAGGTT has a switch fluorescence ratio of 0.984.
For CAATTCACAT, the switch fluorescence ratio was 0.998.
CAATTCCGTC gave a switch fluorescence ratio of 0.978.
CAATTGGCAG showed a switch fluorescence ratio of 0.952.
In the case of CAATTTAGAG, the switch fluorescence ratio is reported as 0.906.
In the case of CAATTTGCGT, the switch fluorescence ratio is reported as 0.993.
CACAAAGCTT showed a switch fluorescence ratio of 1.
In the case of CACAAATCAC, the switch fluorescence ratio is reported as 1.05.
CACAAATCTA showed a switch fluorescence ratio of 1.05.
Sequence CACAACCAAA has a switch fluorescence ratio of 1.02.
With CACAACCGAT the switch fluorescence ratio was 1.06.
With CACAAGCCTA the switch fluorescence ratio was 0.967.
In the case of CACAAGCGGC, the switch fluorescence ratio is reported as 1.06.
For CACAAGGCGA, the switch fluorescence ratio was 0.979.
CACACAACCC was tested, and the switch fluorescence ratio was 1.09.
In the case of CACACCACGG, the switch fluorescence ratio is reported as 1.57.
For CACACGTGGA, the switch fluorescence ratio was 1.03.
CACACTTTTG gave a switch fluorescence ratio of 0.973.
Work on CACAGACGCT yielded a switch fluorescence ratio of 1.22.
In the case of CACAGGGAAA, the switch fluorescence ratio is reported as 1.
Sequence CACAGGTCCA has a switch fluorescence ratio of 1.07.
CACAGTACAC showed a switch fluorescence ratio of 1.51.
With CACAGTAGGA the switch fluorescence ratio was 1.12.
In the case of CACATAAGCG, the switch fluorescence ratio is reported as 1.05.
CACATCAAAT showed a switch fluorescence ratio of 1.02.
With CACATGGACC the switch fluorescence ratio was 1.06.
CACATTGTA gave a switch fluorescence ratio of 1.02.
Sequence CACATTTTGA has a switch fluorescence ratio of 0.998.
CACCACTTCC gave a switch fluorescence ratio of 2.26.
Sequence CACCCATCGT has a switch fluorescence ratio of 1.04.
CACCCTAGCT showed a switch fluorescence ratio of 1.08.
Work on CACCGCGCCG yielded a switch fluorescence ratio of 1.13.
CACCGGAATT gave a switch fluorescence ratio of 2.01.
CACCGGCAAC gave a switch fluorescence ratio of 3.6.
For CACCGGCAG, the switch fluorescence ratio was 1.18.
Sequence CACCGTAGGG has a switch fluorescence ratio of 1.01.
CACCGTGAG was tested, and the switch fluorescence ratio was 1.1.
CACCTATTCT showed a switch fluorescence ratio of 1.02.
With CACCTCTAGC the switch fluorescence ratio was 1.15.
CACCTTAAAA gave a switch fluorescence ratio of 1.
CACCTTCCCA was tested, and the switch fluorescence ratio was 1.74.
Work on CACCTTTGG yielded a switch fluorescence ratio of 0.992.
Sequence CACGAAGTCT has a switch fluorescence ratio of 0.942.
For CACGACATT, the switch fluorescence ratio was 1.13.
Work on CACGACGGGT yielded a switch fluorescence ratio of 0.971.
CACGACTCCA gave a switch fluorescence ratio of 1.18.
Sequence CACGATGTCG has a switch fluorescence ratio of 1.29.
For CACGATTGCA, the switch fluorescence ratio was 1.01.
CACGCACTGG was tested, and the switch fluorescence ratio was 1.73.
In the case of CACGCATATT, the switch fluorescence ratio is reported as 1.37.
CACGCCGTC showed a switch fluorescence ratio of 0.99.
Work on CACGCCTCAG yielded a switch fluorescence ratio of 1.02.
Sequence CACGCCTGAC has a switch fluorescence ratio of 1.48.
In the case of CACGCGGACA, the switch fluorescence ratio is reported as 1.15.
With CACGGACGCC the switch fluorescence ratio was 1.09.
Work on CACGGATCCT yielded a switch fluorescence ratio of 1.01.
CACGGCGGGT was tested, and the switch fluorescence ratio was 1.02.

From the supplement of paper PMC10126150
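Also: ATP exposure 15 min at 22 °C before imaging.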
